# The other results are listed elsewhere or left out.
# B1: PhoQ; a variant is named by its letters at X, in order, P23837 (parent)
# chain: MKKLLRLFFPLSLRVRFLLATAAVVLVLSLAYGMVALIGYSVSFDKTTFRLLRGESNLFYTLAKWENNKLHVELPENIDKQSPTMTLIYDENGQLLWAQRDVPWLMKMIQPDWLKSNGFHEIEADVNDTSLLLSGDHSIQQQLQEVREDDDDAEMTHSVAVNVYPATSRMPKLTIVVVDTIPVELKSSYMVWSWFIYVLSANLLLVIPLLWVAAWWSLRPIEALAKEVRELEEHNRELLNPATTRELTSLVRNLNRLLKSERERYDKYRTTLTDLTHSLKTPLXXLQXXLRSLRSEKMSVSDAEPVMLEQISRISQQIGYYLHRASMRGGTLLSRELHPVAPLLDNLTSALNKVYQRKGVNISLDISPEISFVGEQNDFVEVMGNVLDNACKYCLEFVEISARQTDEHLYIVVEDDGPGIPLSKREVIFDRGQRVDTLRPGQGVGLAVAREITEQYEGKIVAGESMLGGARMEVIFGRQHSAPKDE
# Variants of: B1
# Assay: enrichment ratio after two sorts for PhoP signalling (ratio (wild type AVST 3.29)); higher = more functional
# Conditions: with PhoP (E. coli)
row,Variant,enrichment ratio
1,VINY,≤ 0.25
2,ETLA,≤ 0.25
3,FQKR,≤ 0.25
4,ITLG,5.37
5,SRGP,≤ 0.25
6,IHKF,≤ 0.25
7,NSHL,≤ 0.25
8,FAAD,≤ 0.25
9,VPQQ,≤ 0.25
10,IIHV,≤ 0.25
11,QVTP,≤ 0.25
12,SKYH,≤ 0.25
13,MLEW,≤ 0.25
14,LIMS,≤ 0.25
15,YMHP,≤ 0.25
16,NTGL,≤ 0.25
17,PLLK,≤ 0.25
18,NEDM,≤ 0.25
19,SFSC,≤ 0.25
20,QNCR,≤ 0.25
21,MHPQ,≤ 0.25
22,VLMM,≤ 0.25
23,TIHV,10.4
24,IQLG,1.09

row,Variant,enrichment ratio
1,AEHQ,≤ 0.25
2,DMWV,≤ 0.25
3,NGDN,≤ 0.25
4,SFHG,≤ 0.25
5,YQGQ,≤ 0.25
6,EIHM,≤ 0.25
7,LPGK,≤ 0.25
8,SYPC,≤ 0.25
9,DCMV,≤ 0.25
10,INMQ,≤ 0.25
11,VAED,≤ 0.25
12,TLHT,≤ 0.25
13,MSFS,2.8
14,PEPK,≤ 0.25
15,ITLR,≤ 0.25
16,PPYW,≤ 0.25
17,ITPS,≤ 0.25
18,WYHI,≤ 0.25
19,EDKS,≤ 0.25
20,QDMP,≤ 0.25
21,IPGL,≤ 0.25
22,FLTR,≤ 0.25
23,IHYV,≤ 0.25
24,MYCE,≤ 0.25

row,Variant,enrichment ratio
1,FISN,≤ 0.25
2,RLQD,≤ 0.25
3,MSYS,7.31
4,MHFS,≤ 0.25
5,PAMG,≤ 0.25
6,EWLS,≤ 0.25
7,ISAC,≤ 0.25
8,GFAN,≤ 0.25
9,TTWM,1.91
10,STKQ,≤ 0.25
11,IVVM,≤ 0.25
12,AART,≤ 0.25
13,KIGD,≤ 0.25
14,ICHT,≤ 0.25
15,RVSG,≤ 0.25
16,AAHN,≤ 0.25
17,NPGF,≤ 0.25
18,HNIK,≤ 0.25
19,QCKC,≤ 0.25
20,MKNN,≤ 0.25
21,MDSE,≤ 0.25
22,YDND,≤ 0.25
23,PISE,≤ 0.25
24,MLVP,≤ 0.25

row,Variant,enrichment ratio
1,PYCL,≤ 0.25
2,SLAE,1.31
3,LNCL,≤ 0.25
4,EHNA,≤ 0.25
5,GIMP,≤ 0.25
6,VGPA,≤ 0.25
7,RSPQ,≤ 0.25
8,FVWW,≤ 0.25
9,IPKT,≤ 0.25
10,RMSP,≤ 0.25
11,MRVH,0.437
12,MCLL,8.32
13,FKHL,≤ 0.25
14,ELPW,≤ 0.25
15,TEKI,≤ 0.25
16,HSTH,≤ 0.25
17,IALY,≤ 0.25
18,NMNI,≤ 0.25
19,LVWQ,≤ 0.25
20,RCPV,≤ 0.25
21,LDGT,≤ 0.25
22,PFMV,≤ 0.25
23,STKV,≤ 0.25
24,APLN,≤ 0.25

row,Variant,enrichment ratio
1,TQCF,0.891
2,EDPA,≤ 0.25
3,MPRH,≤ 0.25
4,YCYH,≤ 0.25
5,VIAW,≤ 0.25
6,AWHA,≤ 0.25
7,PAAI,≤ 0.25
8,TYEQ,≤ 0.25
9,STQQ,7.76
10,LWAW,≤ 0.25
11,QYNF,≤ 0.25
12,TDGF,≤ 0.25
13,LDKA,≤ 0.25
14,NQPE,≤ 0.25
15,RIAA,≤ 0.25
16,PHGH,≤ 0.25
17,NICN,≤ 0.25
18,TMEH,≤ 0.25
19,HCIR,≤ 0.25
20,FPSS,≤ 0.25
21,TTPV,≤ 0.25
22,VSWT,6.3
23,REVL,≤ 0.25
24,PPEE,≤ 0.25

row,Variant,enrichment ratio
1,IFYI,≤ 0.25
2,AKVQ,2.82
3,PSPY,≤ 0.25
4,LTAA,≤ 0.25
5,LMCG,≤ 0.25
6,YYWF,≤ 0.25
7,GYIP,≤ 0.25
8,MRWR,≤ 0.25
9,GFCE,≤ 0.25
10,QQQG,≤ 0.25
11,WCWR,≤ 0.25
12,TLDL,≤ 0.25
13,FHII,≤ 0.25
14,SDLH,3.78
15,FNMV,5.92
16,TTKS,≤ 0.25
17,PSHK,≤ 0.25
18,EFMY,≤ 0.25
19,IQAF,≤ 0.25
20,DLIN,≤ 0.25
21,DNFC,≤ 0.25
22,RYCH,≤ 0.25
23,VFKC,≤ 0.25
24,DRSR,≤ 0.25

row,Variant,enrichment ratio
1,MWFL,≤ 0.25
2,GIVV,11.3
3,VLFM,≤ 0.25
4,SQQI,2.33
5,IQYY,≤ 0.25
6,FCKH,≤ 0.25
7,ATHW,≤ 0.25
8,HKFI,≤ 0.25
9,MMWT,≤ 0.25
10,QYIG,≤ 0.25
11,SFGV,≤ 0.25
12,GTWR,≤ 0.25
13,FRGS,≤ 0.25
14,HAYN,≤ 0.25
15,PAQL,≤ 0.25
16,NLLQ,≤ 0.25
17,DMMA,≤ 0.25
18,LPNC,≤ 0.25
19,FRWG,≤ 0.25
20,LRQK,≤ 0.25
21,WWSC,≤ 0.25
22,ATRI,≤ 0.25
23,IDCR,≤ 0.25
24,YERS,≤ 0.25

row,Variant,enrichment ratio
1,LGMH,≤ 0.25
2,DIPD,≤ 0.25
3,SPTA,≤ 0.25
4,IEAE,≤ 0.25
5,RPNT,≤ 0.25
6,QVNV,≤ 0.25
7,PGQL,≤ 0.25
8,FPMA,≤ 0.25
9,MSYK,≤ 0.25
10,LEPK,≤ 0.25
11,AFWC,≤ 0.25
12,ASGA,4.84
13,SATI,8.13
14,LDFH,0.257
15,MHMQ,≤ 0.25
16,IMIK,≤ 0.25
17,NLQE,≤ 0.25
18,PHLG,≤ 0.25
19,TFFW,≤ 0.25
20,ESFW,≤ 0.25
21,QVQL,≤ 0.25
22,FEQC,≤ 0.25
23,RVLN,≤ 0.25
24,HCFQ,≤ 0.25

row,Variant,enrichment ratio
1,QHPF,≤ 0.25
2,VMYW,≤ 0.25
3,MQFF,1.63
4,ENFY,≤ 0.25
5,RSSN,≤ 0.25
6,MFHG,≤ 0.25
7,VQWE,≤ 0.25
8,ANFG,≤ 0.25
9,KIDK,≤ 0.25
10,KHGG,≤ 0.25
11,ETMI,≤ 0.25
12,TQNY,6.18
13,HQFK,≤ 0.25
14,DLNY,≤ 0.25
15,EFES,≤ 0.25
16,KFHL,≤ 0.25
17,TFLL,3.21
18,TWVV,≤ 0.25
19,RDQG,≤ 0.25
20,TTLE,8.73
21,SANP,≤ 0.25
22,WKME,≤ 0.25
23,PHIT,≤ 0.25
24,ARPV,≤ 0.25

row,Variant,enrichment ratio
1,FKCA,≤ 0.25
2,TGKE,≤ 0.25
3,KCTF,≤ 0.25
4,EHAT,≤ 0.25
5,FFCI,≤ 0.25
6,YVFG,≤ 0.25
7,REIS,≤ 0.25
8,MFFT,≤ 0.25
9,AQSY,12.7
10,GLDI,≤ 0.25
11,IRDD,≤ 0.25
12,MSFR,≤ 0.25
13,YNGS,≤ 0.25
14,VGAE,≤ 0.25
15,TSVI,3.09
16,WQCC,≤ 0.25
17,RFVF,≤ 0.25
18,WWVC,≤ 0.25
19,PMTG,≤ 0.25
20,IDTG,≤ 0.25
21,QVSW,≤ 0.25
22,HHRV,≤ 0.25
23,VWSN,≤ 0.25
24,KSWC,≤ 0.25

row,Variant,enrichment ratio
1,ERMA,≤ 0.25
2,FKHP,≤ 0.25
3,DFIP,≤ 0.25
4,TRVC,≤ 0.25
5,SERN,≤ 0.25
6,EYCG,≤ 0.25
7,LYIK,≤ 0.25
8,KGIM,≤ 0.25
9,LPRI,≤ 0.25
10,HVAA,≤ 0.25
11,NDMK,≤ 0.25
12,NVKY,≤ 0.25
13,DVTS,≤ 0.25
14,MSVQ,≤ 0.25
15,RDSR,≤ 0.25
16,FVEG,≤ 0.25
17,LSRQ,≤ 0.25
18,NEYQ,≤ 0.25
19,YTER,≤ 0.25
20,MEDA,≤ 0.25
21,KDLQ,≤ 0.25
22,LTNV,≤ 0.25
23,MLIS,≤ 0.25
24,MQIA,≤ 0.25

row,Variant,enrichment ratio
1,SVRK,≤ 0.25
2,RTKD,≤ 0.25
3,KTSR,≤ 0.25
4,LWLG,≤ 0.25
5,FMQA,≤ 0.25
6,FLPR,≤ 0.25
7,WYVY,≤ 0.25
8,DSLG,≤ 0.25
9,PKPE,≤ 0.25
10,GHPQ,≤ 0.25
11,PSID,≤ 0.25
12,RPSW,≤ 0.25
13,KERG,≤ 0.25
14,SEIR,0.869
15,GPSA,≤ 0.25
16,PYYL,≤ 0.25
17,NLVG,≤ 0.25
18,IEGN,≤ 0.25
19,LNQA,≤ 0.25
20,EAGA,≤ 0.25
21,SGTY,3.74
22,AYPY,≤ 0.25
23,DQMP,≤ 0.25
24,NGNP,≤ 0.25

row,Variant,enrichment ratio
1,MFCI,≤ 0.25
2,FIMI,≤ 0.25
3,IFMK,≤ 0.25
4,RDDY,≤ 0.25
5,TPIP,≤ 0.25
6,TEAT,17
7,FTMS,0.361
8,LVHA,≤ 0.25
9,YQSE,≤ 0.25
10,NMAS,≤ 0.25
11,ACRT,≤ 0.25
12,VMIF,≤ 0.25
13,NTSK,≤ 0.25
14,GWPM,≤ 0.25
15,RRKS,≤ 0.25
16,FMIM,≤ 0.25
17,LFAM,≤ 0.25
18,TGSL,16.8
